From PubChem BioAssay AID1030 (National Center for Advancing Translational Sciences (NCATS), 2008)
Hit rate of the full screen: of about 220,000 compounds, about 16,000 (7.3%) were called active. Inconclusive results, whose numbers are uncertain, are shown with a selection of clear calls. Calls come from the whole dose curve; as a rule, active = well fitted inhibition curve with a large enough effect (not every such curve was filed as active); inconclusive = small, poorly fitted or top-dose-only effect, or another doubt; inactive = no such curve, though single readings can be large or run the other way. Potencies of inconclusive entries are left out as doubtful fits.
Potency is the fitted concentration of half-maximal effect; tags give direction and shape of the fitted curve.
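Throughout, for activity, negative = inhibition: plate controls were no enzyme wells and a reference inhibitor.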

Each compound was assayed against Aldehyde dehydrogenase 1A1 (Homo sapiens) (UniProt P00352) (assay: qHTS Assay for Inhibitors of Aldehyde Dehydrogenase 1 (ALDH1A1)). Conditions: Purified ALDH1A1, NADH fluorescence, propionaldehyde substrate; series mostly up to 75.3 µM; activity, negative = inhibition: at the top concentration.
Sequence of UniProt P00352 (P00352 whole entry, looked up): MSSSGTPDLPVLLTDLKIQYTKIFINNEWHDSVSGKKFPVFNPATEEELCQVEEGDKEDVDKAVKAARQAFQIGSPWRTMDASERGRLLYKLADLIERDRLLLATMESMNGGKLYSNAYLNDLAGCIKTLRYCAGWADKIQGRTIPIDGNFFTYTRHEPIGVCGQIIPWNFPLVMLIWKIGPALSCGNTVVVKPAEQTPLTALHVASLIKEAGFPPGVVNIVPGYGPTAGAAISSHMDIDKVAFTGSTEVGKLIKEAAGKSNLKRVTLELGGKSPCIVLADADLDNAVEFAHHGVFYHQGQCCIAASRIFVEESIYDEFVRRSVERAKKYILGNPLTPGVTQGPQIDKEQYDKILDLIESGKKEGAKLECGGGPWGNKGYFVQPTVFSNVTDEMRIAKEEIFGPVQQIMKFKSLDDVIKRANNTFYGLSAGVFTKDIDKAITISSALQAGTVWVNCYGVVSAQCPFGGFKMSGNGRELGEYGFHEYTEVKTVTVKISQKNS
In the case of `CNC(=O)c1nnsc1S(=O)c1ccc(Cl)cc1` (stereo unspecified), the Potency is reported as active: 22.4 µM.
For `CC(=O)c1ccc(NC(=S)Nc2ccc(Br)c(Cl)c2)cc1`, the Potency was inconclusive [inhibitor, single point].
With `Cc1cc(C)cc(CSc2nnc(C)c(=O)[nH]2)c1` the “activity, negative = inhibition” value was inactive: -4.88%.
With `CC(=O)C1=C(C)NC(SCC(=O)c2cc(Cl)ccc2Cl)=C(C#N)C1c1ccco1` (stereo unspecified) the Potency was active: 25.1 µM.
In the case of `O=C(N/N=C/c1cccnc1)c1ccccc1NS(=O)(=O)c1cccs1`, the Potency is reported as inconclusive [inhibitor, single point].
With `O=C(CSc1nnc2c3ccccc3c3ccccc3c2n1)Nc1ccccc1F` the Potency was active: 8.91 µM.
`Cc1ccc(OCCn2cc(/C=C(\C#N)C(=O)NCC3CCCO3)c3ccccc32)cc1` (stereo unspecified) was tested, and the “activity, negative = inhibition” value was inactive: -14.6%.
With `Cc1ccc(NC(=O)c2cccc3c2-c2ccccc2C3=O)cc1C` the Potency was inconclusive [inhibitor, single point].
For `COC(=O)Cc1c(C)nc2nc(-c3ccco3)[nH]n2c1=O`, the Potency was inconclusive [inhibitor, single point].
In the case of `CCCCn1c(NCc2ccccc2O)nc2ccccc21`, the Potency is reported as inconclusive [inhibitor, single point].
In the case of `N#C/C(=C\c1cc([N+](=O)[O-])c(N2CCCCC2)cc1N1CCCCC1)c1nn(-c2ccccc2)c(N)c1C#N`, the Potency is reported as inconclusive [inhibitor, partial curve].
In the case of `CCCn1c(N2CCN(CC(=O)Nc3ccc4c(c3)OCCO4)CC2)nc2ccccc21`, the Potency is reported as active: 25.1 µM.
`Cc1[nH]n(-c2ccc([N+](=O)[O-])cc2)c(=O)c1C=NCCN1CCN(C(=O)c2cccc(F)c2)CC1` was tested, and the Potency was inconclusive [inhibitor, single point].
With `CN(C)/C=N/c1nc2nccc(-c3cccnc3)n2n1` the Potency was inconclusive [inhibitor, partial curve].
In the case of `Cc1c(C(c2ccc(N(C)C)cc2)c2c(C)n(C)n(-c3ccccc3)c2=O)c(=O)n(-c2ccccc2)n1C`, the Potency is reported as active: 17.8 µM.
`Cc1ccc(S(=O)(=O)NCC2CCC(C(=O)O)CC2)cc1` (stereo unspecified) was tested, and the Potency was inconclusive [inhibitor, single point].
For `O=c1cnc2cnc(Nc3ccccc3)nc2n1C[C@H]1CCCO1`, the “activity, negative = inhibition” value was inactive: -2%.
For `CCOC(=O)c1ccccc1Oc1c(F)c(F)nc(NCCO)c1F`, the Potency was inconclusive [inhibitor, single point].
`COC(=O)c1nn(-c2cccc(C)c2)c2nnc(Cc3ccc(C)cc3)c(=O)n12` was tested, and the Potency was inconclusive [inhibitor, single point].
In the case of `CCOC(=O)N1CCN(C(=O)CSc2ccc(-c3cccnc3)nn2)CC1`, the “activity, negative = inhibition” value is reported as inactive: -2.82%.
In the case of `Cc1ccc2cc3c(NC(=O)CC(C)C)nn(C)c3nc2c1`, the Potency is reported as inconclusive [inhibitor, single point].
`CCOc1c(Cl)cc(C(=O)Nc2ccccc2C(=O)O)cc1Cl` was tested, and the Potency was inconclusive [inhibitor, partial curve].
For `COc1cc(CNn2cn[nH]c2=S)cc(Cl)c1OCc1ccccc1`, the Potency was inconclusive [inhibitor, single point].
`COc1ccccc1Sc1nc(-c2ccccc2)ncc1OC` was tested, and the “activity, negative = inhibition” value was inactive: 4.5%.
With `O=C1OCCC1Sc1ncnc2sc3c(c12)CCC3` (stereo unspecified) the “activity, negative = inhibition” value was inactive: -6.98%.
`C/C(=N\Nc1ccc(F)cc1F)c1ccc(N2CCOCC2)cc1` was tested, and the Potency was active: 15.8 µM.
`Cc1cccc(NC(=S)N=Nc2c(O)[nH]c3ccccc23)c1` was tested, and the “activity, negative = inhibition” value was inactive: -2.91%.
In the case of `CCC(=O)N1CCN(c2ccc(Cl)cc2NC(=O)Cc2ccccc2)CC1`, the Potency is reported as active: 5.01 µM.
`Cc1ccc(SCC(=O)OCn2nnc3ccccc3c2=O)cc1C` was tested, and the “activity, negative = inhibition” value was inactive: -0.992%.
For `Cc1cccc(N2CCN(C(=O)CN(C)S(=O)(=O)c3ccc4c(c3)CCC(=O)N4)CC2)c1C`, the Potency was inconclusive [inhibitor, single point].
In the case of `C=CCNC(=O)/C(C#N)=C\c1cc(Cl)c(O)c(OCC)c1`, the Potency is reported as inconclusive [inhibitor, single point].
In the case of `Cc1nc2ccc(S(=O)(=O)NCC(=O)NCCN3CCCCCC3)cc2s1`, the Potency is reported as inconclusive [inhibitor, single point].
In the case of `COc1ccc(NC(=O)CCC(=O)OCc2ccc([N+](=O)[O-])cc2)cc1`, the Potency is reported as inconclusive [inhibitor, single point].
`COc1ccc(Cc2nnc(SCC(=O)c3ccccc3)o2)cc1` was tested, and the Potency was inconclusive [inhibitor, single point].
In the case of `COc1ccccc1NC(=O)Nc1nn(C)c2cccc(OC)c12`, the Potency is reported as inconclusive [inhibitor, single point].
In the case of `CCCCN(C)C1=Nc2cccc3cccc1c23`, the Potency is reported as inconclusive [inhibitor, single point].
In the case of `COc1cc(CNCCSc2nnnn2C)cc(Br)c1OCc1ccccc1`, the “activity, negative = inhibition” value is reported as inactive: 16.1%.
With `CS(=O)(=O)N1CC(C(=O)NC2CCCC2)Oc2ccc(Cl)cc21` (stereo unspecified) the Potency was active: 10 µM.
`CCCCC(=O)NNC(=S)NC(=O)c1cccc([N+](=O)[O-])c1` was tested, and the Potency was active: 1.78 µM.
`O=C1C(Cl)=C(N2CCCCC2)C(=O)N1c1ccccc1` was tested, and the Potency was inconclusive [inhibitor, partial curve].
`COCCn1c(Sc2ccc(C)cc2)nc2c1c(=O)[nH]c(=O)n2C` was tested, and the Potency was active: 12.6 µM.
`CCOC(=O)CSC1=C(C#N)C(c2ccccc2F)C(C(C)=O)=C(C)N1` (stereo unspecified) was tested, and the Potency was inconclusive [inhibitor, single point].
With `CCc1nc(SCc2cccnc2)c2c(=O)n(C)c(=O)n(C)c2n1` the “activity, negative = inhibition” value was inactive: -0.0188%.
In the case of `COC(=O)c1c(NC(=O)C2CC=CCC2C(=O)O)sc(C(N)=O)c1C` (stereo unspecified), the Potency is reported as inconclusive [inhibitor, single point].
`Brc1cccc(-c2cnc3n2CCCCC3)c1` was tested, and the “activity, negative = inhibition” value was inactive: -6.04%.
For `COc1ccc(/C=C/C(=O)OCC(=O)c2c(N)n(C)c(=O)n(C)c2=O)c(OC)c1`, the Potency was inconclusive [inhibitor, single point].
`CN1CCN(CCC(=O)Nc2ccc(C3CCCC3)cc2)CC1` was tested, and the Potency was inconclusive [inhibitor, single point].
For `C/C(=N\OCc1ccccc1)c1c(O)cc(C(C)C)n(-c2ccccc2)c1=O`, the “activity, negative = inhibition” value was inactive: 6.87%.
In the case of `CCOC(=O)C1CCN(c2c(Nc3ccc4c(c3)OCCO4)c(=O)c2=O)CC1`, the Potency is reported as inconclusive [inhibitor, single point].
With `CSCC[C@H](NC(=O)NCc1ccccc1F)C(=O)O` the “activity, negative = inhibition” value was inactive: 0.126%.
In the case of `Cn1c(=O)c(C(=O)NCC2CCCO2)c(O)c2ccccc21` (stereo unspecified), the “activity, negative = inhibition” value is reported as inactive: -2.89%.
For `CCC(C(=O)Nc1ccc(OC)c(Cl)c1)c1ccccc1` (stereo unspecified), the “activity, negative = inhibition” value was inactive: -14.4%.
With `N[C@@H](Cc1[nH]nc2ccccc12)C(=O)O` the activity, negative = inhibition was inactive: -8.12% [at 13.5 µM].
For `CN(C)S(=O)(=O)Oc1cccc(C(=O)Nc2ccc([N+](=O)[O-])cc2)c1`, the Potency was active: 4.47 µM.
For `Cc1ccc(C(NC(=O)N2CCN(C)CC2)C(Cl)Cl)cc1F` (stereo unspecified), the Potency was inconclusive [inhibitor, single point].
For `CC(=O)Nc1nc(CC(C)C)cc(-c2ccco2)c1C#N`, the Potency was inconclusive [inhibitor, partial curve].
In the case of `COc1ccc(/C=C(/NC(=O)c2cccs2)C(=O)NCc2ccco2)cc1OC`, the “activity, negative = inhibition” value is reported as inactive: -10.2%.
With `CC(=O)NCCCC(=O)NN1C(=S)N(Cc2ccccc2)C(=O)C1CC(=O)Nc1cccc(C)c1` (stereo unspecified) the Potency was inconclusive [inhibitor, partial curve, poor fit].
`Cc1ccc(C(=O)N2CCN(c3ncnc4c(-c5ccccc5)nsc34)CC2)cc1` was tested, and the Potency was inconclusive [inhibitor, partial curve].
For `O=C(NCCN1CCOCC1)c1cc(Sc2ccccc2Cl)nc2ccccc12`, the “activity, negative = inhibition” value was inactive: -7.09%.
`O=C(NC(=S)Nc1ccc2c(c1)OCO2)c1ccc(Cl)cc1` was tested, and the Potency was active: 14.1 µM.
With `O=S(=O)(c1ccccc1)c1nc(-c2ccccc2)oc1NCc1cccnc1` the Potency was active: 25.1 µM.
With `CCOC(=O)c1sc(N2N=C(C)/C(=C\c3ccc(OCC(=O)OC)cc3)C2=O)nc1C` the Potency was active: 14.1 µM.
`O=C(NC(=S)Nc1cccc2[nH]ncc12)c1ccccc1` was tested, and the Potency was inconclusive [inhibitor, single point].
`Cc1nn(C)c(C)c1CNC(=O)/C=C/c1ccccc1F` was tested, and the “activity, negative = inhibition” value was inactive: -9.11%.
With `O=C1CN(C(=O)Cn2ncc(Cl)c(Cl)c2=O)c2ccccc2N1` the Potency was active: 3.16 µM.
In the case of `Cc1ccc(-c2n[nH]c(=S)n2/N=C/C=C/c2ccccc2[N+](=O)[O-])cc1`, the “activity, negative = inhibition” value is reported as inactive: 4.62%.
With `O=C1c2ccccc2-n2c1nc1ccccc1c2=O` the Potency was “inactive”.
In the case of `CCN(CC)CC(=O)NN=C(c1ccccc1)c1ccccc1`, the Potency is reported as inconclusive [inhibitor, single point].
For `CCN(CC)S(=O)(=O)c1ccc2c(c1)nc(CCC(=O)O)n2C`, the Potency was active: 11.2 µM.
For `COc1ccc(S(=O)(=O)N(CCc2ccccc2)CC(=O)O)cc1C`, the Potency was inconclusive [inhibitor, partial curve].
`Nc1ccc2c(C(F)(F)F)cc(C(F)(F)F)nc2n1` was tested, and the Potency was inconclusive [inhibitor, partial curve].
`COc1ccc(Nc2ccc(N3C(=O)CC(C)C3=O)cc2[N+](=O)[O-])cn1` (stereo unspecified) was tested, and the Potency was inconclusive [inhibitor, single point].
With `NC1=NCCCC1` the “activity, negative = inhibition” value was inactive: 9.38%.
For `CC(=O)Oc1c(C(=O)c2nnc(C)o2)c(=O)n(Cc2ccccc2)c2ccccc12`, the Potency was inconclusive [inhibitor, single point].
For `COC(=O)c1[nH]c2cccc(OC)c2c1NC(=O)C(C)N1CCC(C)CC1` (stereo unspecified), the Potency was inconclusive [inhibitor, partial curve].
